In paper PMC4336329 (PLoS ONE, 2015):
Among all 310,000 compounds or so, about 14,000 (4.5%) showed an effect of 50% or more. The effect is printed as a negative number. This is one part of the list.

Molecular target: human ether-à-go-go-related gene (hERG) potassium channel (human, UniProt Q12809)
Experiment: primary screen, population patch clamp on CHO cells stably expressing hERG
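Further: peak tail current of the secondary pulse compared with the same well before compound.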

Sequence of human ether-à-go-go-related gene (hERG) potassium channel (Q12809 whole entry, looked up): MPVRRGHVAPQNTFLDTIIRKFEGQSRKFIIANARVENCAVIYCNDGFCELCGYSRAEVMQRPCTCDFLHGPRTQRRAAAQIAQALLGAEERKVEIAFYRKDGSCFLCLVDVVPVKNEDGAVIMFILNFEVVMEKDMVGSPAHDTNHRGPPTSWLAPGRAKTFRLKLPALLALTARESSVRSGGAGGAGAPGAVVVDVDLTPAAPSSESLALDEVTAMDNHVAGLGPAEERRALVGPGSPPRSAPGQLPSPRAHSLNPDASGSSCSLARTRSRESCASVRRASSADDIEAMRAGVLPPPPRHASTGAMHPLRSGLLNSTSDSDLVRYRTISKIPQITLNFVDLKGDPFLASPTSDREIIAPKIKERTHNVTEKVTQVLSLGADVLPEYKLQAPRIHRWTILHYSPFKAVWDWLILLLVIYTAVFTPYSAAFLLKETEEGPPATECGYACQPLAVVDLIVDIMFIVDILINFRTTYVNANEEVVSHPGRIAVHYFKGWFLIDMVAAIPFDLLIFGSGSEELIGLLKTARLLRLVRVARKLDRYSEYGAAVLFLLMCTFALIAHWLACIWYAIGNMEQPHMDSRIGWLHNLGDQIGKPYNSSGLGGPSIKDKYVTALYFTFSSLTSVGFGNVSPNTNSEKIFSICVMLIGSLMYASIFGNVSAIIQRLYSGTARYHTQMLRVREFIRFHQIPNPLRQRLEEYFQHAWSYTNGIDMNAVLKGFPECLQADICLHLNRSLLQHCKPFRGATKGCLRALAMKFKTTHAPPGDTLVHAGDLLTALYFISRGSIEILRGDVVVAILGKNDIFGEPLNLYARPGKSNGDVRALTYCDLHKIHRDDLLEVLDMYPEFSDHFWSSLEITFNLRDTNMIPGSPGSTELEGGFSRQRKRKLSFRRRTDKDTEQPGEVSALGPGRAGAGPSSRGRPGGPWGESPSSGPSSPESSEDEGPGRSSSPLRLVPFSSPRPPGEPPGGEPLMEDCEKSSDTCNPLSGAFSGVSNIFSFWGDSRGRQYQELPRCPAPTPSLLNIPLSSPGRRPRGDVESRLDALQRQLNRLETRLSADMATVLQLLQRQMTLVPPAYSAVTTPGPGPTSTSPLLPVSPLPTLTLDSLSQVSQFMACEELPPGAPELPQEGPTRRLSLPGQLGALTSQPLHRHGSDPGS

Row | SMILES | hERG current change (%, negative = inhibition) at 10uM
1 | Cc1ccc(NC(=S)N(C)C)cc1C | -4.6%
2 | CC(=O)c1cccc(NCC(=O)Nc2cc(S(=O)(=O)N3CCCCC3)ccc2C)c1 | -5.8%
3 | O=C(O)C1CCN(C(=O)OCc2ccccc2)CC1 | 13.8%
4 | COc1cccc(CNC(=O)C2CCN(S(=O)(=O)N3CCC(C)CC3)CC2)c1 | -3.44%
5 | Cc1ccc(C(=O)NCC(C)(C)O)cc1 | 11.7%
6 | N#Cc1ccc(C23CC4(C2)[C@H](CN(Cc2cccnc2)[C@@H]4c2ccccc2)C3c2ccccc2)cc1 (stereo partly shown) | 1.18%
7 | C=CCn1c(SCC(N)=O)nc2nc3c(cc2c1=O)COC(C)(C)C3 | 4.77%
8 | CCOC(=O)c1c(C)[nH]c(C(=O)COC(=O)c2cnccn2)c1C | -1.87%
9 | Cc1ccc(N2C(=O)CC(Cc3cccc(C)c3)C2=O)cc1 (stereo not shown) | 9.39%
10 | Cn1c(O)c(C=NCCN2CCNCC2)c(=O)[nH]c1=O | 13.6%
11 | CCc1ccc(S(=O)(=O)NCCc2csc(C)n2)s1 | 15.5%
12 | O=C(NC1C2CC3CC(C2)CC1C3)C1CC1 (stereo not shown) | 0.685%
13 | CSc1ccc(/C=C(/NC(=O)c2ccco2)C(=O)NCc2ccco2)cc1 | 10.3%
14 | COc1cccc(/C=C2\SC(=S)N(CCC(=O)N3CCCCC3CCO)C2=O)c1 (stereo not shown) | 15.4%
15 | O=C1NC(NS(=O)(=O)c2ccccc2)(C(F)(F)F)C(=O)N1CCc1ccccc1 (stereo not shown) | 21.1%
16 | CC(=O)c1c(C)nc2ccc([N+](=O)[O-])cc2c1-c1ccccc1 | -11.6%
17 | COc1ccc(CN2C(=O)C(O)(CC(=O)c3c(C)n[nH]c3C)c3ccccc32)cc1OC (stereo not shown) | 20%
18 | COc1cccc2sc(N(CCCN(C)C)C(=O)c3ccc(S(=O)(=O)N4CCCc5ccccc54)cc3)nc12.Cl | -68.3%
19 | Cn1c(=O)cc(C(=O)N/N=C/c2ccc(Cl)cc2)[nH]c1=O | -28.5%
20 | CC1=NN(C(N)=S)C(=O)C1N=Nc1cccc(C(=O)O)c1 (stereo not shown) | 19.6%

Row | SMILES | hERG current change (%, negative = inhibition) at 10uM
21 | COc1ccc(N2C(=O)C3CCCN3C2c2ccc(C)cc2)cc1Cl (stereo not shown) | 8.8%
22 | COC(=O)c1ccccc1NC(=O)CSc1nc(O)c(-c2ccccc2)c(=O)[nH]1 | -9.79%
23 | COc1cccc2cc(-c3nc4ccccc4o3)c(=O)oc12 | 11.1%
24 | CCCCCCCC1(C)NC(=O)N(CC(=O)Nc2cc(C)on2)C1=O (stereo not shown) | -19%
25 | O=C(Cn1nnc2ccccc21)c1cccc([N+](=O)[O-])c1 | 8.85%
26 | CCN(CC(=O)Nc1cc(S(=O)(=O)N2CCOCC2)ccc1Cl)Cc1ccccc1 | -3.4%
27 | CC(C)OCCCNCC(O)c1ccccc1 (stereo not shown) | 1.04%
28 | CN(NC(=O)c1ccc(Cl)cc1)c1ncc(C(F)(F)F)cc1Cl | 7.71%
29 | O=C(/C=C/c1ccccc1)NNC(=O)c1ccco1 | 4.03%
30 | O=C1c2ccccc2C(=O)N1Cc1cccnc1 | 17.1%
31 | Cc1nnc(SCC(=O)Nc2nsc(-c3ccc(Cl)cc3)n2)s1 | 0.522%
32 | Cc1c(C(=O)N2c3ccccc3Sc3ccccc32)cccc1[N+](=O)[O-] | 4.13%
33 | O=C(NCCCN1CCOCC1)c1ccc(S(=O)(=O)Nc2ccccc2F)cc1 | 11.7%
34 | Cc1[nH]c2ccccc2c1-c1csc(N)n1 | 17.8%
35 | CCSc1nc2ccccc2n1C(=O)Oc1ccccc1 | -0.933%
36 | COc1ccc(-c2cc(C)no2)cc1S(=O)(=O)Nc1cccc(CN2CCCC2)c1 | -13.8%
37 | Brc1cccc(OCCCCN2CCCCC2)c1.O=C(O)C(=O)O | -68.9%
38 | COc1ccc(NC(=S)NN(C)C(=S)Nc2ccc(OC)cc2)cc1 | 26.1%
39 | COc1ccc(CNC(=O)c2cc3c(=O)[nH]c4ccccc4c3n2C)cc1 | 1.45%
40 | CSCC[C@H](NC(=O)Nc1ccc(C)cc1)C(=O)O | 13.7%

Row | SMILES | hERG current change (%, negative = inhibition) at 10uM
41 | COc1ccccc1-c1cc(C(=O)Nc2cc(C)nn2-c2ccccc2)no1 | 17%
42 | Cc1cc(C)c(S(=O)(=O)Nc2cc(SCC(=O)O)c(O)c3ccccc23)cc1C | -0.947%
43 | CNC(=O)CNC(=O)Nc1ccc(Cl)c(Cl)c1 | 9.11%
44 | COc1cc2oc3cc(C#Cc4ccc(N)cc4)ccc3c(=O)c2cc1OC | 13%
45 | COC(=O)c1sccc1NC(=O)c1c(F)c(F)c(F)c(F)c1F | 27%
46 | Cc1ccc(C(=O)NNC(=O)c2ccco2)cc1 | 2.25%
47 | O=C(Cc1ccccc1)NNC1CC(=O)N(c2ccc(Cl)cc2)C1=O (stereo not shown) | 5.98%
48 | O=S(=O)(c1cnc[nH]1)N1CCCCCC1 | 11.5%
49 | CC/C=C(\NC(C)=O)c1ccccc1 | 8.17%
50 | O=C(CSc1nnc2c3c4c(sc3ncn12)CCCC4)NCc1ccco1 | 11.4%
51 | COc1ccc(S(=O)(=O)N2CCOCC2)cc1NC(=O)c1ccccc1C | -0.0605%
52 | CSc1cccc(NC(=S)N2CCCN(Cc3ccc(F)cc3)C2)c1 | -43.6%
53 | Cc1ccc(C(NC(=O)c2cccc(S(=O)(=O)N3CCN(C)CC3)c2)c2ccccc2)cc1 (stereo not shown) | -61.8%
54 | COc1ccc(Cc2nnc(NC(=O)C3CCCO3)s2)cc1OC (stereo not shown) | 6.23%
55 | COc1cc2c(cc1NC(=O)C(C)Sc1ccc(C)cc1)oc1ccccc12 (stereo not shown) | 5.87%
56 | CN(CC(=O)NCCc1ccc(S(N)(=O)=O)cc1)S(=O)(=O)c1cccc2nsnc12 | 5.3%
57 | Cc1ccc(C(=O)OCC(=O)NC2CCCc3ccccc32)o1 (stereo not shown) | 9.86%
58 | COc1ccc(NC(=O)Cc2ccc(C)cc2)cc1S(=O)(=O)N1CCCCC1 | -14.5%
